About 14,000 (4.5%) of roughly 310,000 compounds showed an effect of 50% or more. Effects have a minus sign here. Some of the results follow.
target: human ether-à-go-go-related gene (hERG) potassium channel (human, UniProt Q12809); assay: primary screen, population patch clamp on CHO cells stably expressing hERG
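Note: peak tail current of the secondary pulse compared with the same well before compound.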

Chain of human ether-à-go-go-related gene (hERG) potassium channel (Q12809 whole entry, looked up): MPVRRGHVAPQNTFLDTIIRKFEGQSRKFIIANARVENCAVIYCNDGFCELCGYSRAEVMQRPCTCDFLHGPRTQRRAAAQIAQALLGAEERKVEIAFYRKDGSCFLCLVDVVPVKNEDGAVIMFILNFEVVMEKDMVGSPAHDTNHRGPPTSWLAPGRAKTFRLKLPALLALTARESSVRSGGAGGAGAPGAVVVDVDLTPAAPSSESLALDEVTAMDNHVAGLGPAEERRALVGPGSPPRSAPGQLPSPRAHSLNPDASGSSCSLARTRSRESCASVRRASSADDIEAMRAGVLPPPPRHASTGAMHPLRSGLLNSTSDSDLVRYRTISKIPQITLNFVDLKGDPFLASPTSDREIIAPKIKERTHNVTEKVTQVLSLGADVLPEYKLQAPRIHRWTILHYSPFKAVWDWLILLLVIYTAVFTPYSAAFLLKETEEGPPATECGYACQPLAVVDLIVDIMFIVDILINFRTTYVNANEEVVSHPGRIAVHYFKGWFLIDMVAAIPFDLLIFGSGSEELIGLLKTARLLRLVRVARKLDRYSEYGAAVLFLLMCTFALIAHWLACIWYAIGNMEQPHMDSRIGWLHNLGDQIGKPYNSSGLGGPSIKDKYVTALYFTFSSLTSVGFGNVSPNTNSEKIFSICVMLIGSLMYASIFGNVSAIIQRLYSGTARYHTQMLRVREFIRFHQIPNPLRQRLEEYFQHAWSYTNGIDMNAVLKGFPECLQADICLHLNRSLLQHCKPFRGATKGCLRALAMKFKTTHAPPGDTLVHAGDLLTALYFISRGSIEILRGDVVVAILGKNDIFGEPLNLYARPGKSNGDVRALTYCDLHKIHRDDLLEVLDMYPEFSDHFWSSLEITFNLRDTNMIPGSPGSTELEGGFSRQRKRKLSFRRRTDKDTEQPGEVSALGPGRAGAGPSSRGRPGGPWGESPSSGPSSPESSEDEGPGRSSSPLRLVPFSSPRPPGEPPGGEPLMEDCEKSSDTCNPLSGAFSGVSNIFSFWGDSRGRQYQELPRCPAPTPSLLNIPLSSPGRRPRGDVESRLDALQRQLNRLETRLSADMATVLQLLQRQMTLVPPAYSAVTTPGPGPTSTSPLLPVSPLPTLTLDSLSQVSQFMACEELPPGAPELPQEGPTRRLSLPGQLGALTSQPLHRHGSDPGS

SMILES	hERG current change (%, negative = inhibition) at 10uM
Cc1ccc(Nc2nc(NCCCN3CCOCC3)nc(N)c2[N+](=O)[O-])cc1	-66.1%
Cc1nc(-c2ccc(F)cc2)c(CC(=O)Nc2cccc(S(=O)(=O)N3CCOCC3)c2)s1	-15.8%
Cc1c(CCOC(=O)CC23CC4CC(CC(C4)C2)C3)sc[n+]1CC(=O)c1ccc(Br)cc1.[Br-]	-75.1%
COc1ccccc1Cc1nc(-c2cccnc2)no1	14.8%
COc1ccc(CCNC(=O)COC(=O)c2sc(C)nc2C)cc1	-10.8%
CSc1ccccc1OCc1cc(C(=O)N(C)Cc2nonc2C)no1	-2.7%
CCCN1CCC(NC(=O)Cc2cccc(C)c2)CC1	-3.07%
O=S(=O)(Nc1nc2ccccc2nc1Cl)c1ccc(Br)cc1	27.9%
CC(=O)Nc1ccc(S(=O)(=O)NCCSc2ccccn2)cc1	1.63%
CCOC(=O)c1ccc(Nc2ccc([N+](=O)[O-])cn2)cc1	10.4%
CC(=O)Nc1ccc(S(=O)(=O)N(C)CC(=O)OCC(=O)Nc2ccc3c(c2)OCO3)cc1	9.31%
CCOCCCNC(=O)C1CCN(Cc2cccc(OCc3ccccc3)c2)CC1.O=C(O)C(=O)O	-14.1%
O=C1CC(c2ccc(Cl)cc2)n2nc(N3C(=O)CCC3=O)nc2N1 (stereo not shown)	17.2%
CCOc1nc(-c2ccc(OC)cc2)ccc1-c1noc(-c2cc(OC)c(OC)c(OC)c2)n1	-3.98%
O=C(Cc1ccc(N2CCNC2=O)cc1)N1CCCC(Nc2ccc(F)c(F)c2)C1 (stereo not shown)	-13.1%
CC(/C=C/c1ccccc1)=N\Nc1ccccc1[N+](=O)[O-]	14.2%
C=CCNC(=O)c1ccc(N(Cc2ccc(Cl)cc2)S(C)(=O)=O)cc1	-33.5%
O=C(Nc1nc(-c2ccccc2)cs1)NC1CCCCC1	9.58%
CC(NC(=O)c1ccccc1)c1nc2ccccc2n1Cc1ccccc1F (stereo not shown)	0.996%
CCOC(=O)C1=C(O)CSC1=Nc1ccc(Cl)cc1	13.5%
O=C(/C=C/Sc1ncn[nH]1)c1ccc(Cl)cc1	2.27%
CC(C)(C)OC(=O)N1Cc2[nH]c3ccccc3c2C[C@@H]1C(=O)O	13%

SMILES	hERG current change (%, negative = inhibition) at 10uM
COc1ccc(C(=O)NC(=S)NNC(=O)c2cnccn2)cc1	7.89%
O=C(Nc1ccccc1C(=O)Nc1ccc(Br)cn1)c1ccccc1Cl	-9.43%
Cc1nc2ccc(N)cc2c(=O)n1Cc1ccc(Cl)cc1	-11.4%
Fc1ccc(OCc2nc(-c3ccc(Br)o3)no2)c(F)c1	2.46%
Cc1nn2c(COc3ccc(NC(=O)C(C)C)cc3)nnc2c2ccccc12	-5.01%
CC(NC(=O)COC(=O)C1=COCCO1)C12CC3CC(CC(C3)C1)C2 (stereo not shown)	13.7%
COc1ccccc1C(=O)NNC(=O)CN1C(=O)c2ccccc2C1=O	14.3%
CN(c1cccc(NS(=O)(=O)c2cccc([N+](=O)[O-])c2)c1)S(C)(=O)=O	4.42%
CCOc1ccc(CNCc2ccccc2Cl)cc1.Cl	-55.3%
O=C(COc1cccc(Br)c1)NN=C1c2ccccc2-c2ccccc21	-6.17%
CCCNC(=O)NC(=O)CSc1nnc(-c2c[nH]c3ccccc23)o1	8.3%
Cc1cc(N2CCN(Cc3cn(C)nc3-c3cccc(Cl)c3)CC2)cc(C)n1	-65%
CN1CCN(CC(=O)Nc2ccc(S(=O)(=O)N(C)C)cc2)CC1.O=C(O)C(=O)O	6.74%
Cn1cc(C(=O)NC2CCCCC2)c(=O)c2cc(S(=O)(=O)N3CCCC3)ccc21	-12.1%
O=C(COc1ccc(Cl)cc1)NCC(=O)N1CCC2(CC1)NCCc1[nH]cnc12	7.16%
Cc1ccc(C(=O)Nc2cccc([N+](=O)[O-])c2)cc1S(=O)(=O)Nc1ccc(C(=O)O)cc1	11.7%
Nc1ccc(Sc2cnn(-c3ccccc3)c(=O)c2Cl)cc1	-35.9%
COc1ccc(C(=O)N2CC3(CC(c4ccc(Cl)cc4)=NO3)C[C@H]2C(=O)NCC(N)=O)cc1 (stereo partly shown)	9.04%
O=C(CC12CC3CC(CC(C3)C1)C2)Nc1cccc2ncccc12	-23%
O=c1oc2ccccc2c(N2CCCC2)c1CN1CCCC1	13%
Cc1c(C(=O)OC2CCCCC2)[nH]c2c1C(=O)CC(C)(C)C2	-2.98%

Reference: publication PMC4336329 (PLoS ONE, 2015)
